Laboratory results from the antibiotic and cytotoxicity screens of Wong et al. (2023).
Some of the results follow.

The compounds below were run on HSkMC (human skeletal muscle cells) (assay: cytotoxicity call (relative viability < 0.9)). Conditions: 10 µM.

Row | SMILES | cytotoxicity call
1 | N=C(N)NCCCC[C@@H]1NC(=O)CCSSC[C@@H](C(N)=O)NC(=O)[C@@H]2CCCN2C(=O)[C@H](Cc2c[nH]c3ccccc23)NC(=O)[C@H](CC(=O)O)NC(=O)CNC1=O | inactive
2 | C[C@@H]1CN([C@@H](C)CO)C(=O)c2cc(NS(C)(=O)=O)ccc2O[C@H]1CN(C)C(=O)Nc1ccc2c(c1)OCO2 | inactive
3 | COc1cccc(NC(=O)N2C[C@@H](O)COC[C@H]3O[C@H](CC(=O)NCCCN4CCOCC4)CC[C@@H]32)c1 | inactive
4 | COC(=O)c1c2oc(c1C(=O)OC)C(=O)N[C@@H](Cc1ccccc1)Cn1cc(nn1)[C@@H](Cc1ccccc1)NC(=O)N[C@@H](COC(=O)NCCCCCC(=O)NO)CC2 | inactive
5 | O=c1c(-c2ccc(O)cc2)coc2cc(O)cc(O)c12 | inactive
6 | C[C@@H]1CN([C@@H](C)CO)C(=O)c2c(c3ccccc3n2C)-c2ccccc2CO[C@H]1CN(C)Cc1ccc(O)cc1 | inactive
7 | COc1cccc(NC(=O)N[C@H]2C=C[C@@H](CC(=O)N3CCN(C)CC3)O[C@H]2CO)c1 | inactive
8 | C[C@@H]1CN([C@H](C)CO)C(=O)c2cc(NC(=O)Cn3cnnn3)ccc2O[C@H]1CN(C)S(C)(=O)=O | inactive
9 | COCCOC(=O)N1C(=O)[C@@]2(c3cc(C#Cc4ccc(OC)cc4)ccc31)[C@H](c1ccccc1OCCO)N1[C@H](c3ccccc3)[C@H](c3ccccc3)OC(=O)[C@H]1[C@@H]2C(=O)N1CCN(c2ncccn2)CC1 | inactive
10 | CCOC(=O)c1cc2c(c(-c3cccc(-c4cccc(OC)c4)c3)n1)[C@@H](CCO)N(S(=O)C(C)(C)C)C2 (stereo not given in full) | inactive
